Assay results taken from patent US20140154255A1 (AbbVie / Abbott, published 2014).

T1: human VEGF-A residues 27-191 of Accession #AAV38412 (human, UniProt P15692 27-191)
T1 construct: range 27-191
T1 sequence (looked up): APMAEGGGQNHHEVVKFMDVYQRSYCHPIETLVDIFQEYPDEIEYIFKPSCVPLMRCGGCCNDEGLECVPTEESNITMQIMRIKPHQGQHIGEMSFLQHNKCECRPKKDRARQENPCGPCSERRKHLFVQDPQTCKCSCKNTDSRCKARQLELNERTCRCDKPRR

B1: SL DLL4-VEGF DVD-Ig variant N31F (bispecific antibody)
heavy: EVQLVESGGGLVQPGGSLRLSCAASGFTFSNFPMAWVRQAPGKGLEWVATISSSDGTTYYRDSVKGRFTISRDNAKNSLYLQMNSLRAEDTAVYYCARGYYNSPFAYWGQGTLVTVSSASTKGPEVQLVESGGGLVQPGGSLRLSCAASGYTFTFYGMNWVRQAPGKGLEWVGWINTYTGEPTYAADFKRRFTFSLDTSKSTAYLQMNSLRAEDTAVYYCAKYPHYYGSSHWYFDVWGQGTLVTVSSASTKGPSVFPLAPSSKSTSGGTAALGCLVKDYFPEPVTVSWNSGALTSGVHTFPAVLQSSGLYSLSSVVTVPSSSLGTQTYICNVNHKPSNTKVDKKV[gap - human IgG1 Fc with changes]
light: DIQMTQSPSSLSASVGDRVTITCRASEDIYSNLAWYQQKPGKAPKLLIYDTNNLADGVPSRFSGSGSGTDFTLTISSLQPEDFATYYCQQYNNYPPTFGQGTKLEIKRTVAAPSVFIFPPDIQMTQSPSSLSASVGDRVTITCSASQDISNYLNWYQQKPGKAPKVLIYFTSSLHSGVPSRFSGSGSGTDFTLTISSLQPEDFATYYCQQYSTVPWTFGQGTKVEIKRTVAAPSVFIFPPSDEQLKSGTASVVCLLNNFYPREAKVQWKVDNALQSGNSQESVTEQDSKDSTYSLSSTLTLSKADYEKHKVYACEVTHQGLSSPVTKSFNRGEC
notes: also called N31F (SL linked DVD-Ig)
B2: SL DLL4-VEGF DVD-Ig variant N31W (bispecific antibody)
heavy: EVQLVESGGGLVQPGGSLRLSCAASGFTFSNFPMAWVRQAPGKGLEWVATISSSDGTTYYRDSVKGRFTISRDNAKNSLYLQMNSLRAEDTAVYYCARGYYNSPFAYWGQGTLVTVSSASTKGPEVQLVESGGGLVQPGGSLRLSCAASGYTFTWYGMNWVRQAPGKGLEWVGWINTYTGEPTYAADFKRRFTFSLDTSKSTAYLQMNSLRAEDTAVYYCAKYPHYYGSSHWYFDVWGQGTLVTVSSASTKGPSVFPLAPSSKSTSGGTAALGCLVKDYFPEPVTVSWNSGALTSGVHTFPAVLQSSGLYSLSSVVTVPSSSLGTQTYICNVNHKPSNTKVDKKV[gap - human IgG1 Fc with changes]
light: B1 light
notes: also called N31W (SL linked DVD-Ig)
B3: SL DLL4-VEGF DVD-Ig variant N31Y (bispecific antibody)
heavy: EVQLVESGGGLVQPGGSLRLSCAASGFTFSNFPMAWVRQAPGKGLEWVATISSSDGTTYYRDSVKGRFTISRDNAKNSLYLQMNSLRAEDTAVYYCARGYYNSPFAYWGQGTLVTVSSASTKGPEVQLVESGGGLVQPGGSLRLSCAASGYTFTYYGMNWVRQAPGKGLEWVGWINTYTGEPTYAADFKRRFTFSLDTSKSTAYLQMNSLRAEDTAVYYCAKYPHYYGSSHWYFDVWGQGTLVTVSSASTKGPSVFPLAPSSKSTSGGTAALGCLVKDYFPEPVTVSWNSGALTSGVHTFPAVLQSSGLYSLSSVVTVPSSSLGTQTYICNVNHKPSNTKVDKKV[gap - human IgG1 Fc with changes]
light: B1 light
notes: also called N31Y (SL linked DVD-Ig)
B4: SL DLL4-VEGF DVD-Ig variant S100aT (bispecific antibody)
heavy: EVQLVESGGGLVQPGGSLRLSCAASGFTFSNFPMAWVRQAPGKGLEWVATISSSDGTTYYRDSVKGRFTISRDNAKNSLYLQMNSLRAEDTAVYYCARGYYNSPFAYWGQGTLVTVSSASTKGPEVQLVESGGGLVQPGGSLRLSCAASGYTFTNYGMNWVRQAPGKGLEWVGWINTYTGEPTYAADFKRRFTFSLDTSKSTAYLQMNSLRAEDTAVYYCAKYPHYYGTSHWYFDVWGQGTLVTVSSASTKGPSVFPLAPSSKSTSGGTAALGCLVKDYFPEPVTVSWNSGALTSGVHTFPAVLQSSGLYSLSSVVTVPSSSLGTQTYICNVNHKPSNTKVDKKV[gap - human IgG1 Fc with changes]
light: B1 light
notes: also called S100aT (SL linked DVD-Ig)
B5: SL DLL4-VEGF DVD-Ig variant T30N (bispecific antibody)
heavy: EVQLVESGGGLVQPGGSLRLSCAASGFTFSNFPMAWVRQAPGKGLEWVATISSSDGTTYYRDSVKGRFTISRDNAKNSLYLQMNSLRAEDTAVYYCARGYYNSPFAYWGQGTLVTVSSASTKGPEVQLVESGGGLVQPGGSLRLSCAASGYTFNNYGMNWVRQAPGKGLEWVGWINTYTGEPTYAADFKRRFTFSLDTSKSTAYLQMNSLRAEDTAVYYCAKYPHYYGSSHWYFDVWGQGTLVTVSSASTKGPSVFPLAPSSKSTSGGTAALGCLVKDYFPEPVTVSWNSGALTSGVHTFPAVLQSSGLYSLSSVVTVPSSSLGTQTYICNVNHKPSNTKVDKKV[gap - human IgG1 Fc with changes]
light: B1 light
notes: also called T30N (SL linked DVD-Ig)
B6: SL DLL4-VEGF DVD-Ig variant N31H (bispecific antibody)
heavy: EVQLVESGGGLVQPGGSLRLSCAASGFTFSNFPMAWVRQAPGKGLEWVATISSSDGTTYYRDSVKGRFTISRDNAKNSLYLQMNSLRAEDTAVYYCARGYYNSPFAYWGQGTLVTVSSASTKGPEVQLVESGGGLVQPGGSLRLSCAASGYTFTHYGMNWVRQAPGKGLEWVGWINTYTGEPTYAADFKRRFTFSLDTSKSTAYLQMNSLRAEDTAVYYCAKYPHYYGSSHWYFDVWGQGTLVTVSSASTKGPSVFPLAPSSKSTSGGTAALGCLVKDYFPEPVTVSWNSGALTSGVHTFPAVLQSSGLYSLSSVVTVPSSSLGTQTYICNVNHKPSNTKVDKKV[gap - human IgG1 Fc with changes]
light: B1 light
notes: also called N31H (SL linked DVD-Ig)

Target: T1, human VEGF-A residues 27-191 of …
Assay: BIAcore SPR [continued]
Procedure: (§1) The binding kinetics and affinity of the antibodies for VEGF (human VEGF-A residues 27-191 of Accession #AAV38412) was determined by using a BIAcore T200 surface plasmon resonance system (BIAcore, GE Healthcare, Piscataway, N.J.). Coupling running buffer was HBS-EP+ running buffer (10 mM HEPES, 150 mM sodium chloride, 3 mM EDTA 0.05% P-20, pH 7.4); assay running buffer was HBS-EP+ with 300 mM sodium chloride and 0.1 mg/mL BSA (Sigma A7906). Polyclonal goat anti-human Fc (Thermo Scientific prod#31125) was first immobilized to the biosensor surface in 10 mM sodium acetate, pH 4.5 using standard BIAcore amine coupling reagents (N-ethyl-N′-dimethylamino-propylcarbodiimide, EDC; N-hydroxysuccinimide, NHS; and ethanolamine HCl, pH 8.5). For binding kinetics assay a series of cycles were performed, each cycle consisted of 1) mAb capture, 2) Ag or buffer injection, 3) dissociation phase and 4) regeneration. Briefly, anti-VEGF antibodies were captured on parallel surfaces at a low flow rate of 10 μL/min. Capture levels were kept low to minimize avidity due to the dimeric nature of VEGF. No capture of the antibody was made on the reference surface to serve for primary referencing and as a negative control. Subsequently, VEGF or buffer only was injected to all flow cells at a flow rate of 80 μL/min for three minutes to monitor association followed by a 20-minute flow of assay rinning buffer at a flow rate of 80 μL/min to monitor dissociation. […] At the end of each cycle the surface was regenerated with 10 mM glycine, pH 1.5 at a flow rate of 60 μL/min in pulses of 60 and 10 sec. Binding data were fit to the 1:1 Langmuir model with mass transport term included using Biacore T200 Evaluation Software to determine the binding constants.

Row | Kd | koff | kon | Binder
1 | 0.52 nM | 2.45e-05 s⁻¹ | 47100 M⁻¹ s⁻¹ | B1
2 | 0.75 nM | 2.77e-05 s⁻¹ | 37100 M⁻¹ s⁻¹ | B2
3 | 0.236 nM | 1.4e-05 s⁻¹ | 59200 M⁻¹ s⁻¹ | B3
4 | 0.81 nM | 5.02e-05 s⁻¹ | 61700 M⁻¹ s⁻¹ | B4
5 | 0.703 nM | 3.01e-05 s⁻¹ | 42800 M⁻¹ s⁻¹ | B5
6 | 0.73 nM | 3.15e-05 s⁻¹ | 42900 M⁻¹ s⁻¹ | B6

Target: T1, human VEGF-A residues 27-191 of …
Assay: BIAcore SPR, KD WT/KD mutant [continued]
Procedure: as §1

Row | affinity improvement | Binder
7 | 2.5 fold | B1
8 | 1.7 fold | B2
9 | 4.6 fold | B3
10 | 1.6 fold | B4
11 | 1.5 fold | B5
12 | 1.8 fold | B6
